Reference: the supplement of paper PMC10126150
Values marked as one replicate rest on one cluster of the flow cell; about a third of the high ones do not repeat.

Test system: ATP
Assay: switch fluorescence ratio, 500 uM ATP over buffer (Cy3 cluster intensity, sum of 5 cycles each) (fold (ratio)); higher = stronger signal-on switching upon ATP binding; sequences stand for … in TCGTCGGCAGCGTCAGATGTGTATAAGAGACAGTTTTTTTTTTTTTTTTTTTTTTTTT…TC
Conditions: aptamer strand: ATP DNA aptamer (quencher-CACCTGGGGGAGTATTGCGGAGGAAGG + anchor), 100 nM annealed; ATP concentration: 500 uM; one replicate
Method in brief: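 Cy3-labelled switching-strand clusters on a modified Illumina MiSeq flow-cell were annealed to 100 nM quencher-labelled ATP aptamer, imaged in selection buffer, then imaged after 15 min with 500 uM ATP at 22 °C. Five buffer/ATP cycles ran, with NaOH stripping and re-annealing between them. The fluorescence ratio is summed target-cycle over summed buffer-cycle Cy3 intensity per cluster, averaged per switch-domain sequence. Clusters outside 100-1000 RFU were excluded.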
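Also: ATP exposure 15 min at 22 °C before imaging.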

Row | Sequence | switch fluorescence ratio
1 | GCAAGGCTGT | 0.995
2 | GCAAGGGATG | 1.03
3 | GCAAGTATAT | 0.974
4 | GCAAGTCATA | 0.989
5 | GCAAGTCCGC | 1.42
6 | GCAAGTCTGC | 1.04
7 | GCAATAGCCC | 3.32
8 | GCAATCAATC | 1.37
9 | GCAATGCGTG | 1.11
10 | GCAATGTAGC | 1.4
11 | GCAATTCGTC | 1.27
12 | GCAATTCTCA | 5.25
13 | GCAATTTAGG | 0.997
14 | GCACAAGTTT | 0.983
15 | GCACACCTGG | 1.09
16 | GCACACGTCC | 1.12
17 | GCACACGTCG | 0.97
18 | GCACCCTGTT | 0.989
19 | GCACCGTTGG | 1.03
20 | GCACCTCTAC | 1.23
21 | GCACGACTTG | 0.98
22 | GCACGTAAAA | 1.06
23 | GCACGTTCGT | 0.97
24 | GCACTGCCGA | 1.09
25 | GCACTGTCAC | 1.29

Row | Sequence | switch fluorescence ratio
26 | GCAGACTGTT | 0.958
27 | GCAGATTCGG | 0.965
28 | GCAGCAAGTC | 5.7
29 | GCAGCACATT | 1.26
30 | GCAGCAGAAT | 1.15
31 | GCAGCCGCAG | 1.28
32 | GCAGCCGCGT | 1.07
33 | GCAGCCTTGG | 0.971
34 | GCAGGAAGTG | 0.997
35 | GCAGGACCGA | 0.986
36 | GCAGGCGGAC | 1.04
37 | GCAGGGAGC | 1.04
38 | GCAGGGTATT | 0.963
39 | GCAGGGTTT | 0.977
40 | GCAGGTGGGA | 1.01
41 | GCAGGTTTCG | 0.993
42 | GCAGTACAGC | 1.03
43 | GCAGTAGCGC | 1.04
44 | GCAGTATTAG | 1
45 | GCAGTCGCCC | 0.965
46 | GCAGTGCACA | 1.02
47 | GCAGTGGAGA | 1.04
48 | GCAGTGTCTT | 1.02
49 | GCAGTTATTG | 1
50 | GCAGTTGCAT | 1

Row | Sequence | switch fluorescence ratio
51 | GCATAACGAA | 1.07
52 | GCATAACGTG | 1.02
53 | GCATAAGAAT | 1.02
54 | GCATAAGTAA | 1
55 | GCATAAGTCA | 0.978
56 | GCATAATCAC | 1.15
57 | GCATAATCTG | 0.965
58 | GCATACACAT | 1.05
59 | GCATACCACT | 1.09
60 | GCATAGCGAC | 1.32
61 | GCATATATTA | 1.01
62 | GCATATCTG | 1.02
63 | GCATATTAAT | 0.963
64 | GCATCAGCGC | 0.992
65 | GCATCTAGA | 1.07
66 | GCATCTG | 1.02
67 | GCATCTGTCT | 0.997
68 | GCATGAGGCT | 1.01
69 | GCATGATCAG | 0.98
70 | GCATGCAGTG | 1
71 | GCATGCCTTC | 1.03
72 | GCATGCTCAG | 1.04
73 | GCATGGAACA | 0.984
74 | GCATGGGAGG | 0.968
75 | GCATGTACCT | 1.28

Row | Sequence | switch fluorescence ratio
76 | GCATGTAGCG | 1.04
77 | GCATGTGCTA | 1.01
78 | GCATGTTATT | 1
79 | GCATTAGTGG | 0.984
80 | GCATTCAGCA | 0.988
81 | GCATTTCCTG | 0.975
82 | GCATTTTACG | 1.03
83 | GCCAAAAAA | 0.999
84 | GCCAAAAGAG | 1.02
85 | GCCAAAGTTG | 0.922
86 | GCCAACATTG | 0.958
87 | GCCAAGGGAG | 1.01
88 | GCCAAGTTTT | 0.992
89 | GCCAATATCG | 1.03
90 | GCCACCTTGG | 1.02
91 | GCCACGCCTG | 0.97
92 | GCCACGGCCA | 1.01
93 | GCCACTATCG | 1.01
94 | GCCACTATGA | 0.993
95 | GCCACTTAAC | 1.55
96 | GCCAGCGGGC | 1.03
97 | GCCAGCGTCT | 1.07
98 | GCCAGCGTTC | 1.06
99 | GCCAGCTACC | 1.14
100 | GCCATAGGGA | 0.992
